Measurements from ChEMBL document CHEMBL5308541, “MAIP: An Open-Source Tool to Enrich High-Throughput Screening Output and Identify Novel, Druglike Molecules with Antimalarial Activity” (ACS Med Chem Lett, 2023).
Among all 150,000 compounds or so, about 540 (0.36%) showed an effect of 50% or more. This is one part of the list.

Tested on: Plasmodium falciparum
Assay: Primary screen in NF54 nanoGlo assay, in single point, at 2uM, 72h; a lower Z score goes with more inhibition
Assay type: functional, Erythrocyte
Settings: timepoint 72 hour

SMILES	% Inhibition	Z score
C1=C(c2ccccc2)CCN(Cc2cccc(OC3CCNCC3)c2)C1	2%	-0.38
Cn1nccc1-c1ccnc(NCC23CCCC2NCC3)n1 (stereo not given)	-4%	0.68
Fc1ccc(C2=CCN(C[C@@H]3CCCN4CCCC[C@H]34)CC2)cc1	0%	-0.03
O=C(NCC1CNCCC1c1ccc(F)cc1)N1CCC2(CCNCC2)CC1 (stereo not given)	6%	-0.88
CCN1CCN(c2cccc(NCc3cncs3)c2)CC1	-3%	0.51
O=C(Cc1c[nH]c2ccccc12)N(CCN1CCCC1)[C@H]1CCCNC1	4%	-0.66
O=C(NCC1CCN(CCc2c[nH]c3ccccc23)CC1)c1cnc(C2CC2)nc1	10%	-1.71
C1=C(c2cn(Cc3ccccc3)c3ccccc23)CCNC1	-6%	0.84
CC[C@@H](c1ccc(F)cc1)N1CCC(c2c[nH]c3ccc(C(N)=O)cc23)CC1	-8%	1.61
CN1CCC(N2C[C@@H]3C[C@H](C2)c2ccc(-c4ccc5ccccc5c4)c(=O)n2C3)CC1	-2%	0.26
c1ccc(N2CC[C@H](NCCc3c[nH]cn3)C2)cc1	-4%	0.75
CCOC(C)C(=O)N1C2CCC1C(C(=O)O)C2 (stereo not given)	-11%	1.67
O=C1NCC[C@@H]1c1cccc(Br)c1	0%	0.06
CC(C)Oc1cncc(N2CCN(C3CC4CCC(C3)N4C)CC2)n1 (stereo not given)	12%	-2.09
OC1CCCN(CCCNC[C@@H]2[C@H]3CNC[C@@H]23)C1 (stereo not given in full)	-11%	2.39
C[C@H](NCc1ccccc1N(C)C1CCN(C)CC1)c1nc(-c2cccc(F)c2)no1	6%	-1.22
CN1CCC2CCC(C1)N2c1nc(N)c2cnn(C)c2n1 (stereo not given)	-4%	0.87
CC(c1cccc(C#N)c1)N1CCN(C2CC3CCC(C2)N3C)CC1 (stereo not given)	-5%	0.91
Cc1cccc2c(CCN[C@@H](C)CN3CCOCC3)c[nH]c12	-2%	0.37
CCNc1nc(C)cc(N2CCNCC2)n1	-5%	0.78
O=C(Cc1c[nH]c2ccccc12)N1CCN(Cc2nc(-c3cccc(C(F)(F)F)c3)no2)CC1	-2%	0.33
Fc1ccc2ccnc(N3C[C@H]4CNC[C@H]4C3)c2c1	-9%	1.59
O=C(Cc1c[nH]c2cc(F)ccc12)N(CCN1CCCC1)Cc1ccc(Cl)cc1	4%	-0.78
C[C@@H](Cc1ccc(F)cc1Cl)NCC1(CCO)CCOCC1	-1%	0.11
Cc1cc(C)nc(Nc2nc(CC(=O)N3CCN(C4CCCCC4)CC3)cs2)n1	2%	-0.46
Oc1ccc(C2=CCN(Cc3cccc4[nH]ccc34)CC2)cc1	36%	-6.16
Cc1cc2c(N3CCC(N4CC5CCNC5C4)CC3)ncnc2s1 (stereo not given)	-2%	0.43
O=C(Cc1nnc(-c2ccc3ncccc3c2)o1)N1CCN(C2CCCCC2)CC1	4%	-0.68

SMILES	% Inhibition	Z score
Cc1[nH]c2ccc(F)cc2c1CCNCc1ccncc1	-6%	0.94
CN(c1ncc(Br)cc1C#N)C1CCNCC1	-3%	0.53
NCCc1nnc2c(=O)n(C3CC3)ccn12	-2%	0.43
Cc1ccc2c(CCN[C@@H](C)CN3CCN(C)CC3)c(C)[nH]c2c1C	2%	-0.38
Clc1ccc(CNCCN2CCC3(C2)OCCO3)c2ncccc12	-1%	0.17
c1cc(-c2cc[nH]n2)cc(-c2ccccc2N2CCNCC2)c1	-5%	0.79
Cc1nnc(CN2C3CCC2CC(n2cc(Br)cn2)C3)n1C (stereo not given)	-11%	1.65
Cc1cccnc1NCCNC[C@@H]1CCCN2CCCC[C@H]12	-9%	1.54
Nc1ncc(C(=O)NC2COCC2N2CCCCC2)c(-c2ccccc2)n1 (stereo not given)	12%	-2.65
CN(C)CC12CNCC1CN(c1ccnc3cc(Cl)ccc13)C2 (stereo not given)	97%	-19.2
Cc1cc(C)c(CNc2ccc(-c3ccc(F)cc3)nn2)c(=O)[nH]1	-4%	0.66
CN1C2CCC1CC(OC(=O)C1CCC(C(=O)OC3CC4CCC(C3)N4C)(c3ccccc3)c3ccccc31)C2 (stereo not given)	47%	-7.18
OCCNc1cc(N2CCC3(O)CCNCC3C2)ncn1 (stereo not given)	5%	-0.83
O=C(NC1COCC1N1CCCC1)c1ccc2c3c([nH]c2c1)CCCC3 (stereo not given)	9%	-1.33
O=C(C[C@H]1CCCc2ccccc21)N1CCCN(C(=O)Oc2ccccc2)CC1	11%	-2.37
CN(C)c1ncc(CNCCc2c[nH]c3cc(F)c(Cl)cc23)cn1	-2%	0.3
c1cnn(-c2ccc(CNC3(c4nc(-c5ccsc5)no4)CCCCC3)cc2)c1	0%	0.05
Oc1cccc(CNC[C@H](O)c2cccc(Br)c2)c1Cl	10%	-1.74
CO[C@H]1C[C@@H](CN2CCCC2)N(C(=O)Cc2c[nH]c3ncccc23)C1	-7%	1.03
O[C@@H](CNC1(c2ccccc2)CC1)C(F)(F)F	-3%	0.54
N#Cc1ccc(-c2cccc(C(=O)NCC3CCNCC3)c2)cc1Cl	-6%	1.26
CN1CCN(c2ccc(C(F)(F)F)cc2NCc2cnc[nH]2)CC1	52%	-7.95
O=C(Nc1cnc(N2CCNCC2)nc1)C12CCCC1NCC2 (stereo not given)	-7%	1.38
Nc1nc(N2CCC3CCC(C2)N3)c2c[nH]nc2n1 (stereo not given)	1%	-0.12
CC(Cc1ccc(F)cc1)NCC(O)c1ccsc1 (stereo not given)	6%	-1.13
Fc1ccc2nc(C(F)F)nc(N[C@H]3CCNC4(CCC4)C3)c2c1	7%	-1.3
CC(C)(O)c1cncc(-c2ccc(C(=O)N[C@H]3CN4CCC3CC4)cc2)c1	-5%	1.16
